Consider 53 compounds from PubChem BioAssay AID1346428 (National Center for Advancing Translational Sciences (NCATS), 2018).

Values joined by “and” are separate entries in the source; they are usually repeats but may differ in a detail not shown here. Identical values can stand only once. In all, about 48,000 compounds went through this assay and about 1,200 (2.5%) were called active. Not shown: some 2% with an inconclusive outcome.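 How the source made its calls: active means activation of at least 60% and not above a set upper limit (about 1 call in 100 departs from these limits); inconclusive means activation of 40% to 60%, or above that upper limit; inactive means activation under 40%.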 This is one part of the list.

The target in the assay is Probable G-protein coupled receptor 32 (Homo sapiens) (UniProt O75388). As to the kind of experiment: qHTS for Agonists of Human Resolvin D1 Receptor DRV1. Further: 0% is about no effect. As to conditions: CHO-K1 GPR32 beta-arrestin PathHunter luminescence, 90 min; at 76.9 µM; hits give high values; zero percent set by DMSO-only wells. Put shortly: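 Using DMSO wells as EC0, agonist-induced signal was taken as chemiluminescence from beta-Gal reconstituted upon beta-arrestin recruitment to GPR32 in CHO-K1 cells after 90 min compound treatment.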
UniProt O75388, sequence (O75388 whole entry, looked up): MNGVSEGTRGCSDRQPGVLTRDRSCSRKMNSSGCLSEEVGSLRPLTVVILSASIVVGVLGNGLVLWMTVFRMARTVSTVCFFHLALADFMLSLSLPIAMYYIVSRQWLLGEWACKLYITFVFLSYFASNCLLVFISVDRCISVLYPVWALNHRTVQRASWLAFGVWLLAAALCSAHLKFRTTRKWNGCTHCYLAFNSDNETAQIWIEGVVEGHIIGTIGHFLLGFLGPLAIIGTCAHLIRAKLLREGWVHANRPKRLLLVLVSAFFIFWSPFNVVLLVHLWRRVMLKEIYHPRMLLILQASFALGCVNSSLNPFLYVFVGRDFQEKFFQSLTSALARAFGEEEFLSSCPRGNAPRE
In the case of `CCOc1ccc(NS(=O)(=O)c2ccc3c(c2)NC(=O)CCS3)cc1`, the activation is active: 74.7%.

Take `COC(=O)c1ccccc1NC(=O)Cn1c(=O)n(CCC(=O)NCc2ccc3c(c2)OCO3)c(=O)c2ccccc21`: the activation was inactive: -6.05%.

`COc1ccc(C(=O)c2cn(CC(=O)Nc3cc(OC)cc(OC)c3)c3ccc(OC)cc3c2=O)cc1`: the activation was inactive: 6.04%.

Take `Cc1ccc(Cn2nc3n(c2=O)-c2cc(Cl)ccc2OC3)cc1`: the activation is inactive: 19%.

With `COc1ccc(-n2c(-c3cccc(F)c3)nc3c(cnn3-c3ccc(C)cc3)c2=O)cc1`, the activation is inactive: 14.3%.

For `Cc1ccc(-c2csc(-c3c(N)c(C(=O)c4ccc5c(c4)OCO5)n4ccccc34)n2)cc1`, the activation was inactive: 13.5%.

`Cc1ccc(-c2cn3nc(N4CCCC(C(=O)NCc5ccccc5F)C4)sc3n2)cc1` (stereo not drawn): the activation was inactive: -27.8%.

`CC1=C(C(=O)OC2CCCC2)C(c2c(F)cccc2Cl)CC(=O)N1` (stereo not drawn): the activation was inactive: 28.7%.

For the compound `CCOC(=O)c1c(S(=O)(=O)N2CCC(C(=O)NCc3cccc(OC)c3)CC2)c(C)n(C)c1C`, the activation was inactive: 1.53%.

In the case of `COc1cccc(N2C(=O)C(CC(=O)Nc3cccc(F)c3)N(C3CCCC3)C2=O)c1` (stereo not drawn), the activation is inactive: -17.1%.

Take `Cn1ccnc1SCC(=O)Nc1cccc(Br)c1`: the activation is inactive: -0.176%.

As to `Cc1cccc(N(C)C(=O)Cn2c(=O)oc3cc(S(=O)(=O)N4CCCCC4)ccc32)c1`, the activation is inactive: -8.3%.

On to `COc1ccc(-c2nc3ccccc3o2)cc1NC(=O)Cc1ccc(Cl)cc1`, for which the activation is inactive: -0.772%.

Consider `Cc1ccc2oc(-c3ccc(C)c(NC(=O)/C=C/c4ccco4)c3)nc2c1`, for which the activation was inactive: -8.55%.

As to `Cc1ccc2c(CC(=O)N(Cc3ccc(N(C)C)cc3)Cc3ccco3)coc2c1C`, the activation was inactive: -21.3%.

For the compound `O=C(NCc1ccccc1Cl)c1nnc(Cc2cccc(F)c2)o1`, the activation was inactive: -4.51%.

`O=C1CSC2(C(=O)N(Cc3cccc(C(F)(F)F)c3)c3ccccc32)N1c1ccc(F)c(F)c1` (stereo not drawn): the activation was inactive: 4.47%.

On to `Cc1ccc(CNC(=O)Cn2ccn(-c3cccc(Cl)c3)c(=O)c2=O)cc1`, for which the activation is inactive: -1.47%.

With `N#Cc1ccccc1CSc1nnc(-c2ccc(Br)cc2)o1`, the activation was inactive: 0.536%.

On to `COc1cccc(-c2cc(C(F)(F)F)n3ncc(C(=O)OC(C)C)c3n2)c1`, for which the activation was inactive: -6.98%.

Consider `CCc1ccc(OCC(=O)N(Cc2ccc(C(C)C)cc2)C2CCS(=O)(=O)C2)cc1` (stereo not drawn), for which the activation is inactive: -39.3%.

Regarding `Cc1ccc(-c2noc(CNC(=O)c3ccc(C)c(Cl)c3)n2)cc1`, the activation was inactive: 5.09%.

As for `NC(=O)N1c2ccccc2C=Cc2ccccc21`, the activation was inactive: 6.53% and inactive: 1.58%.

Regarding `CCCOc1ccc(C2C(=O)N(C3CCC(C)CC3)CC(=O)N2CCc2ccccc2)cc1OC` (stereo not drawn), the activation was inactive: -9.35%.

On to `O=C(Nc1ccccc1C(F)(F)F)c1ccc(F)c(S(=O)(=O)N2CCc3ccccc3C2)c1`, for which the activation is inactive: -23.9%.

`CCN(CC)C(=O)C1=C(C)Nc2nc3ccccc3n2C1c1cccc(OC)c1` (stereo not drawn): the activation is inactive: -1.8%.

Turning to `CCOC(=O)N[C@H](Cc1c[nH]c2ccccc12)C(=O)Nc1cccc(Cl)c1`, the activation is inactive: -18.5%.

As to `COc1ccc(OC)c(NC(=O)c2nc(S(=O)(=O)Cc3ccc(F)cc3)ncc2Cl)c1`, the activation is inactive: -27.2%.

As to `CC(C)Oc1ccc(CNC(=O)C2=Cc3ccccc3OC2)cc1`, the activation was inactive: 0.191%.

Take `COc1ccc(C(=O)c2cn(CC(=O)Nc3cc(C)ccc3C)c3nc(C)ccc3c2=O)cc1`: the activation was inactive: 7.32%.

On to `CCOCCCN(Cc1ccco1)C(=O)c1cc2c(s1)-c1c(C)cccc1OC2`, for which the activation was inactive: -33%.

With `CC(C)n1nc(-c2cc3cc(O)ccc3[nH]2)c2c(N)ncnc21`, the activation was inactive: 0.456%.

Regarding `CCc1ccc(C2CC(=O)Nc3c2c(=O)n(C)c2ncnn32)cc1` (stereo not drawn), the activation was inactive: 5.61%.

Regarding `COc1ccc(N2CCN(C(CNC(=O)c3ccc(OC)c(OC)c3)c3cccnc3)CC2)cc1` (stereo not drawn), the activation was inactive: 0.864%.

As to `NC(=O)C1CCN(c2csc3ccc(F)cc3c2=O)CC1`, the activation was inactive: -2.83%.

Turning to `CCn1c(CN2CCN(C)CC2)nc2cc(NC(=O)c3ccc([N+](=O)[O-])cc3)ccc21`, the activation is inactive: 4.24%.

`CCCCSc1nnc2c(n1)OC(c1ccc(Br)s1)Nc1ccccc1-2` (stereo not drawn): the activation is inactive: 29%.

Consider `Cc1ccc(NC(=O)CN(Cc2ccccc2)S(=O)(=O)c2ccc3nc(C)sc3c2)c(C)c1`, for which the activation was inactive: -14.3%.

For the compound `Cc1ccc(-c2nc(CSc3nnc(C)n4c3cc3occc34)c(C)o2)cc1`, the activation was inactive: -3.92%.

Take `CCCCOC(=O)c1ccc(-n2nnc3c(sc4nc(C)cc(C)c43)c2=O)cc1`: the activation was inactive: -5.49%.

For `COc1ccc(CNC(=O)c2c(O)nc3c(C)cccn3c2=O)cc1`, the activation is inactive: -0.362%.

For the compound `CN(C)c1ccc(CNC(=O)CCCN2C(=O)c3cccnc3Oc3ccc(Cl)cc32)cc1`, the activation is inactive: -12.1%.

Regarding `CC(C)Cn1cc(NC(=O)N2CCN(c3cccc(C(F)(F)F)c3)CC2)c2ccccc2c1=O`, the activation is inactive: -33.9%.

For `Cc1cccc2nc(-c3ccccn3)c(Nc3ccccc3)n12`, the activation was inactive: -93.6%.

Turning to `CCOC(=O)C1=C(C)NC(C)=C(C(=O)OCC)C1c1c(F)c(F)c(F)c(F)c1F`, the activation is inactive: -22.1%.

For the compound `CCOc1ccc(-c2nc(-c3ccccc3)c(-c3ccccc3)[nH]2)cc1OCC`, the activation is inactive: -6.27%.

Consider `COc1cc2nc(Nc3cccc(F)c3)nc(N)c2cc1OC`, for which the activation is inactive: 20.6%.

As for `Cc1cc(N2CCC(C)CC2)nc2ccc(NC(=O)Cc3ccccc3Br)cc12`, the activation was inactive: 11.2%.

As for `O=S(=O)(NCCc1nnc2ccc(SCc3ccccc3Cl)nn12)c1ccccc1`, the activation is inactive: -27%.

Consider `COc1ccc2cc1Oc1cc3c(cc1OC)CC[N+](C)(C)[C@H]3Cc1ccc(cc1)Oc1c(OC)c(OC)cc3c1[C@@H](C2)[N+](C)(C)CC3`, for which the activation is inactive: 22%.

Turning to `Cc1cc2nc(-c3cccc(NC(=O)c4cccc5ccccc45)c3)oc2cc1C`, the activation was inactive: -17.7%.

Turning to `O=C(/C=C/c1ccccc1)Nc1cc(-c2nc3cc(Cl)ccc3o2)ccc1Cl`, the activation was inactive: -6.75%.

Consider `Cc1cccc(OCC(=O)Nc2cccc(OCc3cc(=O)n4cccc(C)c4n3)c2)c1`, for which the activation was inactive: -14.6%.
